The labels stand for the following.
B1: TPR 5TU (parent)
chain: GGAUCUUCUCGAUCUAACAAAAAAGACAAAUCUGCCACAAAGCUUGAGAGCAUCUUCGGAUGCAGAGGCGGCAGCCUUCGGUGGCGCGAUAGCGCCAACGUUCUCAACUAUGACACGCAAAACGCGUGCUCCGUUGAAUGGAGUUUAUCAUG

Variants at the background level are over-represented here.

The variants in the data set derive from B1. The experiment in a line: polymerase ribozyme fitness, log enrichment relative to wild type (log ratio); higher = more active; in vitro selection for triplet polymerase activity. The method, boiled down: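 Mutant libraries of each subunit of a heterodimeric triplet polymerase ribozyme were built by PCR and transcribed. Each library went through one round of in vitro selection in triplicate: annealing with biotinylated primer, partner subunit and triplets, frozen incubation at −7 °C, gel excision of extended constructs, streptavidin-bead capture and RT-PCR. Input and output libraries were Illumina-sequenced; only genotypes with ≥10 input reads and ≥1 read per output were kept. Fitness is log2(genotype enrichment/wild-type enrichment), using inverse-variance-weighted replicate averages.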
Take GGAUCUUCUCGAUCUAACAAAAAAGACAAAUCUGCCACAAAGCUUGAGAGCCUCUUCGGAUGCAGAGGCGGCAGCCUUCGGUGUCGCGAUAGGGCCAACGUUCUCAACUAUGACACGCAAAACGCGUGCUCGGUUGAAUGGAGUUUAUCAUG [A52C G84U C93G C132G]: the “polymerase ribozyme fitness (log ratio)” value is ≤ -4.2.
In the case of GGAUCUUCUCGAUCUAACAAAAAAGACAAAUCUGCCACAAAGCUUGAGAGCGUCUUCGGCAGCAGAGGCGGCAUCCUUCGGUGGCGCGAUAGCGCGAACGUUCUCAACUAUGACACGCAAAACGCGUGCUCCGUUGAAUGGAGUUUAUCAUG [A52G A60C U61A G74U C96G] it was ≤ -4.2.
GGAUCUUCUCGAUCUAACAAAAAAGACAAAUCUGCCACAAAGCUUGAGAGCCUCAUCGGAUGCAGAGGCGGCAGCCUUCGGUGGCGCGAUGGCGCCAACGUUCUCAACUAAGACACGCAAAACGCGUGCUCCGUUGAAGGGAGUUUAUCAUG [A52C U55A A91G U111A U139G]: the “polymerase ribozyme fitness (log ratio)” value was ≤ -4.2.
With GGAUCUUCUCGAUCUAACAAAAAAGACAAAUCUGCCACAAAGCUUGAGAGCCUCUACGGAUGCAGAGGCGGCAGGCUUCGGUAGCGCGAUAGCGCCAACGUUCUCAACUAUGUCACGCAAAACGCGUGCUCCGUUGAAUGGAGUUUAUCAUG [A52C U56A C75G G83A A113U], the “polymerase ribozyme fitness (log ratio)” value is ≤ -4.2.
As for GGAUCUUCUCGAUCUAACAAAAAAGACAAAUCUGCCACAAAGCUUGAGAGCGUCUUCGGAUGCAGCCGCGGCAGCCUUCGGUGUCGCGAUAGCGCCAAUGUUCUCAACUAUGAUAAGCAAAACGCGUGCUCCGUUGAAAGGAGUAUAUCAUG [A52G A66C G67C G84U C99U C114U C116A U139A U145A], the figure is ≤ -4.2; as for GGAUCUUCUCGAUCUAACAAAAAAGACAAAUCUGCCACAAAGCUUGAGAGCCUCAUCGCAUGCAGAGGCGGCAGCCUACGGUGGCGCGCUAGCCCCAACGUUCUCAACUAUGACACGCAAAACGCGUGCUCCGUUGAAUGGAGCUUAUCAUG [A52C U55A G59C U78A A89C G94C U144C], ≤ -4.2; as for GGAUCUUCUCGAUCUAACAAAAAAGACAAAUCUGCCACAAAGCUUGAGAGCCUCUUCGGAUGCAGAGGCGGCAGCCUUCGGCGACGCGAUCGCGCCAACGUUCUCAACUAUGACACGCAAAACGCGUGCUCCGUUGAAUGGAGUUUAUCAUG [A52C U82C G84A A91C], ≤ -4.2.
As for GGAUCUUCUCGAUCUAACAAAAAAGACAAAUCUGCCACAAAGCUUGAGAGCCACUUCGGAUGCAGAGGCGGCAGCCUUCCGAGGCGCGAUAGCGCCAAGGUUCUCUACUAUGACACGCAAAACGCGUGCUCCGUUGAAUGGAGUUUAUCAUG [A52C U53A G80C U82A C99G A106U], the “polymerase ribozyme fitness (log ratio)” value was ≤ -4.2.
As for GGAUCUUCUCGAUCUAACAAAAAAGACAAAUCUGCCACAAAGCUUGAGAGCCUCUUCGGAUGCAGAGGCGGCAGCCUUCGGUGGCGCGAUAGCGCCAACGCUCUCAACUACGACACGCAUAACGCGUGCUCCGUUGAAUGGAAUUUAUCAUG [A52C U101C U111C A120U G143A], the “polymerase ribozyme fitness (log ratio)” value was ≤ -4.2.
Take GGAUCUUCUCGAUCUAACAAAAAAGACAAAUCUGCCACAAAGCUUGAGAGCCUCUUCGGAUGCAGAGGCGGCAGCCUUCGGUGGCGCGAUAGCGCCAACGUCCUCAACUAUGACACGCAAAACGCGUGCUCCGUCGAAUGGAGUUUAUCAUG [A52C U102C U135C]: the “polymerase ribozyme fitness (log ratio)” value was ≤ -4.2.
In the case of GGAUCUUCUCGAUCUAACAAAAAAGACAAAUCUGCCACAAAGCUUGAGAGCCUCAUCGGAUGCAGAGGCGGUAGCCUUCGGUGGCGCGAUAGCGCCAUCGUUCUCAACUAUGACACGCAAAACGCGUGCUCCGUUGAAUGGAGUUUAUCAUG [A52C U55A C72U A98U] it was -3.14; in that of GGAUCUUCUCGAUCUAACAAAAAAGACAAAUCUGCCACAAAGCUUGAGAGCGUCUUCGGAUGCAGAGGCGGCGGCCUUUGGUGGCGCGAUAGCGCCAACGUUCUCAACUAUGACACGCAAACCGCGUGCUCCGUUGAAUGGAGUUUACCAUG [A52G A73G C79U A122C U148C], ≤ -4.2.
As to GGAUCUUCUCGAUCUAACAAAAAAGACAAAUCUGCCACAAAGCUUGAGAGCCUCUUCGGAUGCAGAGGCGGCAGCCUUCGGUGGCGCGAUAGCCCCAACGUUCUCAACUAUGAGACGCAAGACGCGUGCUCCGUUGAAUGGAGUUUAUCAUG [A52C G94C C114G A121G], the “polymerase ribozyme fitness (log ratio)” value was ≤ -4.2.
As for GGAUCUUCUCGAUCUAACAAAAAAGACAAAUCUGCCACAAAGCUUGAGAGCCUCUUCGGAUGCAGAGGCGGCAGCCUCCGGUGGCGCCAUAGCGCAAACGUUCUCAACUAUGACAUGCAAAACGCGUGCUCCGUUGAAUGGAGUUUAUCAUG [A52C U78C G88C C96A C116U], the figure is ≤ -4.2.
For GGAUCUUCUCGAUCUAACAAAAAAGACAAAUCUGCCACAAAGCUUGAGAGCGUCUUCGGGUGCAGAGGCGGCAGCCUUCGGUGGAGCGAUAGCGGCGACGUACUCAACUAUGACACGCAAAACGAGUGCUCCGUUGAAUGGAGUUUAUCAUG [A52G A60G C85A C95G A97G U102A C125A], the “polymerase ribozyme fitness (log ratio)” value was ≤ -4.2.
GGAUCUUCUCGAUCUAACAAAAAAGACAAAUCUGCCACAAAGCUUGAGAGCCACUUCGGAUGCAGAGGCGGCAGCCUUCGGUGGCCCGAUAGCGCCAACGUUCUCAACUAUGACACGCAAAACGCGUGCUCGGUUGAAUGGAGUUUAUCAUG [A52C U53A G86C C132G]: the “polymerase ribozyme fitness (log ratio)” value is ≤ -4.2.
As for GGAUCUUCUCGAUCUAACAAAAAAGACAAAUCUGCCACAAAGCUUGAGAGCCUCUUCGGAUGCAGAGGCGGCAGCCUUCGGUGUCGCGAUAGCGCCAACGUUCUCAACUAUGACACGCAAAACGCGUGCUCCGUUGAAUGGAGGUUAUCAUG [A52C G84U U144G], the figure is -2.05; as for GGAUCUUCUCGAUCUAACAAAAAAGACAAAUCUGCCACAAAGCUUGAGAGCGUCUUCGGAUGCAGAGGCGGCAGCCUUCGGUGGCGCGUUAGGGCCAACGUUCUCAACUAUGACACGCAAAACGCGUGCUCCGUUGAAUGGAGUUUAUCAUG [A52G A89U C93G], ≤ -4.2.
As for GGAUCUUCUCGAUCUAACAAAAAAGACAAAUCUGCCACAAAGCUUGAGAGCCUCUUCGGAUGCAGAGGCGGCAGCCUUCGGUGGCGCGAUAGCGCCAACGUUCUCAACUAUGACACGCAAAACGCGUGCUCCGUUGAAAGGAGUUUAUCAUG [A52C U139A], the figure is ≤ -4.2.

Source of the values: the RNAGym collection of RNA variant scans (doi:10.1073/pnas.2313332121).
